Test results: PMC4336329 (PLoS ONE, 2015)
Among all 310,000 compounds or so, about 2,200 (0.71%) showed an effect of 50% or more. Effects have a minus sign here. The list shows a part of the results.

Each compound was assayed against human ether-à-go-go-related gene (hERG) potassium channel (human, UniProt Q12809) (assay: primary screen, population patch clamp on CHO cells stably expressing hERG).
Chain of human ether-à-go-go-related gene (hERG) potassium channel (Q12809 whole entry, looked up): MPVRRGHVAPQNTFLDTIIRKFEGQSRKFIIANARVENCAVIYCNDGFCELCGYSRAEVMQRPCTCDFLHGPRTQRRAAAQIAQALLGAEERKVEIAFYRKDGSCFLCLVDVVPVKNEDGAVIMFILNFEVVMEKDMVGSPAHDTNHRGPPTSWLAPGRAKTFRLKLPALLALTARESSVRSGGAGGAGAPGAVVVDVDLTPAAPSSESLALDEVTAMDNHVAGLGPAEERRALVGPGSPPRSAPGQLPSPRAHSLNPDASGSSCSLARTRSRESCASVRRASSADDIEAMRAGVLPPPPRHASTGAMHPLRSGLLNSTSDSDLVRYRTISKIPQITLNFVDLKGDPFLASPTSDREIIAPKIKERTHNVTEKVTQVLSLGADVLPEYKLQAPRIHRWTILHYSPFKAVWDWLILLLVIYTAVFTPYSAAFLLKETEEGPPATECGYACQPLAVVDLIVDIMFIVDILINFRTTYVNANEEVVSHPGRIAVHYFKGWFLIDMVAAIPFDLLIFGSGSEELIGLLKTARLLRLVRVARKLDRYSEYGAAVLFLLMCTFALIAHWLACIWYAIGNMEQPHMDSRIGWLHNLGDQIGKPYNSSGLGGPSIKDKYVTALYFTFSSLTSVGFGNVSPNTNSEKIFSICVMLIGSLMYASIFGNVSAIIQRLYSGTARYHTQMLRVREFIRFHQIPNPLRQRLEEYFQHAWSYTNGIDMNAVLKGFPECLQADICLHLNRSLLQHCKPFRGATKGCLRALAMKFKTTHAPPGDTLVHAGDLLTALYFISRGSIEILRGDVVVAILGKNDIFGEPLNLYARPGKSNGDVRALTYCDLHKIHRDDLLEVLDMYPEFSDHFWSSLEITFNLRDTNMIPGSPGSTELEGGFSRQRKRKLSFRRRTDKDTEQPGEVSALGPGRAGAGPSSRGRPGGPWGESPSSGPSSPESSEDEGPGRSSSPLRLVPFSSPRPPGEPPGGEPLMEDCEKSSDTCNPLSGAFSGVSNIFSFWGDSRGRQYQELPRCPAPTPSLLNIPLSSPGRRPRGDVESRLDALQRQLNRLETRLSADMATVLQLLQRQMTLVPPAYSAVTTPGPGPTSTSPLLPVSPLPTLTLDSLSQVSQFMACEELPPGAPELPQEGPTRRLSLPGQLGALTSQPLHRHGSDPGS

SMILES | hERG current change (%, negative = inhibition) at 1uM [%]
CN1CCN(CC#CC(C)(O)C2CC3C=CC2C3)CC1.Cl (stereo not shown) | 10.8
O=C1NC(c2ccccc2Cl)=N/C1=C/c1ccco1 | 1.65
CCOc1ccc(N(CC(=O)Nc2cccc(F)c2)S(=O)(=O)c2c(C)noc2C)cc1 | 7.37
COCCN(C/C=C/c1ccccc1)C/C=C/c1ccccc1 | -41.8
Cc1ccc2sc(NC(=O)c3cccc(N4C(=O)CCC4=O)c3)nc2c1C | 12.8
NS(=O)(=O)c1ccc(NNC(=O)c2cccs2)cc1 | 11.2
O=c1[nH]nc(CNc2ccc(Cl)cc2Cl)c2ccccc12 | 11.9
Cc1cc(C)c(S(=O)(=O)Nc2ccc(C(N)=O)cc2)c(C)c1 | 8.12
CN(C)c1ccc(NC(=O)c2ccncc2)c2ccccc12 | -3.42
Cc1nnc(SCC2CCCO2)n1-c1ccccc1 (stereo not shown) | 13.7
COc1ccnc(CN(C)C(=O)C2CCC(=O)N(CCN(C)C)C2)c1 (stereo not shown) | 18
COc1ccc(Nc2nnc(SCC(=O)NC(=O)Nc3ccc4c(c3)OCCO4)s2)cc1 | 11.8
COc1ccc(N2C(=O)/C(=C/c3ccc([N+](=O)[O-])cc3)N=C2C)c(OC)c1 | 15.1
C[C@H]1CCC[C@@H](O)CCC/C=C/c2cc(O)cc(O)c2C(=O)O1 | 12.6
COC(=O)[C@@H]1C[C@@H](c2ccccc2)[C@H](C)C1(C)C | 9.31
Cc1ccc(S(=O)(=O)N2c3cc(C)ccc3OCC2C(C)(C)C)cc1 (stereo not shown) | 10.8
O=C(O)CCN1C(=O)c2ccc(NC(=O)CSCc3ccccc3)cc2C1=O | 0.421
CCc1ccccc1NC(=O)CN(C)C(=O)CSc1nn(-c2ccccc2)c(=S)s1 | 8.56
COc1cc(C(=O)N2CCN(C(=O)CC(C)C)CC2)cc(OC)c1OC | 8.32
CCN(CC)S(=O)(=O)c1ccc2c(c1)nc(SC(C)C(=O)NCC1CCCO1)n2CC (stereo not shown) | 0.83

SMILES | hERG current change (%, negative = inhibition) at 1uM [%]
COC1=CCC2([N+](=O)[O-])CN(C)CC1([N+](=O)[O-])C2 (stereo not shown) | 5.53
O.O=C(NC12CC3CC(CC(C3)C1)C2)c1cncc(O)c1 | 14.8
C/C(=C\C(=O)O)C12CC3CC(CC(C3)C1)C2 | 12.1
COc1ccc(C(=O)Nc2cc(C)c(NC(=O)c3ccccc3OC)cn2)cc1 | 11
S=C(Nc1ccc2[nH]ccc2c1)NC1CCCCC1 | 15.2
Cc1cc(C(=O)OCC(=O)N2c3ccccc3CC2C)c(C)o1 (stereo not shown) | 6.25
CCOC(=O)C1(Cc2cccc(Cl)c2)CCCN(C(=O)c2cccc(C)n2)C1 (stereo not shown) | 4.57
O=C(NCc1cccnc1)c1ccc2c(=O)n(CCCN3CCCC3=O)c(=S)[nH]c2c1 | 6.64
Cc1ccc(S(=O)(=O)N2C(=O)CCC2C(=O)Nc2ccc3c(c2)OCCO3)cc1 (stereo not shown) | 17.4
N#Cc1ccc(-c2ccccc2)nc1SCCN1CCOCC1 | 2.81
Cc1ccc(NC(=O)Cc2ccc(-n3cccc3)cc2)c(C)c1 | 5.51
O=C(CN1C(=O)NC2(CCCCCC2)C1=O)c1cccs1 | 8.17
CCOc1ccccc1OCCCC(=O)NC1CCCc2ccccc21 (stereo not shown) | 5.8
CC(C)(CCO)Nc1ncnc2onc(-c3ccc(F)cc3)c12 | 7.88
COc1ccc2nc(C)cc(NCc3ccc(F)cc3)c2c1 | -26.2
COc1cccc(CNCCc2c[nH]c3ccccc23)c1 | 5
COc1cc(C#N)ccc1OCC(=O)NCc1cccs1 | 14
O=C1c2ccccc2S(=O)(=O)c2cc(C(=O)N3CCN(c4c(Cl)cncc4Cl)CC3)ccc21 | 8.05
CC(C)(C)c1ccc(C(=O)Nc2ncn[nH]2)cc1 | -0.575
O=C(O)c1ccc2c(c1)ncn2C1CCCCC1 | 11.2

SMILES | hERG current change (%, negative = inhibition) at 1uM [%]
Cc1nn(C)cc1S(=O)(=O)N1CCN(Cc2ccccc2Cl)CC1 | 2.52
C/C(=N\NC1=NCCN1)c1ccc(N)c([N+](=O)[O-])c1 | 8
CCOC(=O)CNc1ncnc2nc[nH]c12 | 12
O=C(NCCCNCc1ccccc1)c1ccccn1.O=C(O)/C=C/C(=O)O | 4.26
O=C(O)Cc1ccc(NS(=O)(=O)c2c(Cl)cccc2Cl)cc1 | 0.167
CCN(CC)c1nc(-c2ccc(C(=O)NN)cc2)nc(-c2ccc(C(=O)NN)cc2)n1 | 14.5
COc1ccccc1CN1CC(C(=O)N(C)Cc2[nH]c3ccccc3c2C)CCC1=O (stereo not shown) | 4.59
CCC1=Nc2cc(C(=O)O)ccc2Sc2ccc(Cl)cc21 | 17.5
CC(=O)NS(=O)(=O)c1ccc(NC(=O)C2c3ccccc3Oc3ccccc32)cc1 | 10.4
Cc1cccc(N2C(S)=C(C#N)C(=O)NC2c2cccs2)c1 (stereo not shown) | 8.42
CCOC(=O)C1(Cc2cccc(Cl)c2)CCCN(C(=O)c2cc(C)on2)C1 (stereo not shown) | 22.3
CN(C(=O)c1cccc(N2C(=O)C3C4C=CC(C4)C3C2=O)c1)C1CCCCC1 (stereo not shown) | 5.1
CC(=O)c1ccc(NS(=O)(=O)c2ccc3c(c2)N(C(C)=O)CCO3)cc1 | 23.4
O=S(=O)(Cc1ccccc1)Nc1ccc(F)cc1 | 15.1
O=P1(Oc2ccccc2)OCCCS1 (stereo not shown) | 12.2
CCOC(=O)NC1(C(F)(F)F)C(=O)N(Cc2ccccc2)C2=C1C(=O)CC(C)(C)C2 (stereo not shown) | 23.8
O=C(O)c1ccccc1C(=O)NCCCn1ccnc1 | 14.5
O=C(CCNC(=O)c1ccc([N+](=O)[O-])cc1)Nc1nccs1 | 13.9
